This passage reports cytotoxicity call results from the antibiotic and cytotoxicity screens of Wong et al. (2023).

This is one part of the list.

For the first assay, the system named is HSkMC (human skeletal muscle cells). The experiment in a line: cytotoxicity call (relative viability < 0.9). Conditions: 10 µM.
As to `Cc1noc(C)c1NC(=O)N(C)C[C@H]1Oc2cc(C#CCN(C)C)ccc2S(=O)(=O)N([C@@H](C)CO)C[C@H]1C`, the cytotoxicity call was “inactive”.

Turning to `C[C@@H]1CCCCO[C@@H](CN(C)C(=O)C2CCCCC2)[C@@H](C)CN([C@H](C)CO)C(=O)c2cc(NC(=O)C3CCCCC3)ccc2O1`, the cytotoxicity call was “inactive”.

Consider `O=c1cc(CN2CCCC2)nc2n1CCCNC2`, for which the cytotoxicity call is “inactive”.

For the compound `C[C@H](CO)N1C[C@H](C)[C@H](CN(C)C(=O)c2ccccc2)OCCCC[C@H](C)Oc2ccc(NS(=O)(=O)c3ccc(F)cc3)cc2C1=O`, the cytotoxicity call was “inactive”.

Consider `Cn1cncc1CO`, for which the cytotoxicity call is “inactive”.

For the compound `CN1C(=O)c2cc(NC(=O)C3CCOCC3)ccc2OC[C@@H]2O[C@H](CC(=O)NCc3ccc4c(c3)OCO4)CC[C@@H]21`, the cytotoxicity call is “inactive”.

For the compound `COc1ccc(NC(=O)N(C)C[C@H]2OCCCC[C@@H](C)Oc3ccc(NC(=O)Nc4ccc(C(F)(F)F)cc4)cc3C(=O)N([C@@H](C)CO)C[C@H]2C)cc1`, the cytotoxicity call was “inactive”.

With `O=C(N[C@H](c1ccc(Cl)cc1)c1ccsc1)C1CCN(Cc2ccc(Oc3ccccc3)cc2)CC1`, the cytotoxicity call was “inactive”.

For `C[C@@H]1CN([C@@H](C)CO)C(=O)c2cccc(NC(=O)C3CC3)c2O[C@@H]1CN(C)S(=O)(=O)c1cccs1`, the cytotoxicity call was “inactive”.

With `C=CC[C@@H](CC(=O)NCCO)C(=O)NCCOC(=O)[C@H](CC=C)NC(=O)OCC1c2ccccc2-c2ccccc21`, the cytotoxicity call was “inactive”.

Turning to `CCCN(C)C[C@H]1OCCCC[C@H](C)Oc2ccc(NC(=O)CCC(F)(F)F)cc2C(=O)N([C@@H](C)CO)C[C@H]1C`, the cytotoxicity call is “inactive”.

Another assay relates to HepG2. The experiment in a line: cytotoxicity call (relative viability < 0.9). Conditions: 10 µM.
Take `C[C@@H]1CN([C@@H](C)CO)S(=O)(=O)c2ccc(C#C[C@@H](C)O)cc2O[C@@H]1CN(C)C`: the cytotoxicity call was “inactive”.

As for `C[C@H](CO)N1C[C@H](C)[C@@H](CN(C)Cc2ccncc2)OCCCC[C@H](C)Oc2ccc(NC(=O)Nc3ccccc3)cc2C1=O`, the cytotoxicity call was “inactive”.

In the case of `Cc1ccc(S(=O)(=O)N(C)C[C@@H]2OCCCC[C@H](C)Oc3ccc(NS(=O)(=O)c4ccc(F)cc4)cc3C(=O)N([C@@H](C)CO)C[C@@H]2C)cc1`, the cytotoxicity call was “active”.

In the case of `Cc1noc(C)c1S(=O)(=O)Nc1cccc2c1O[C@H](CN(C)S(=O)(=O)c1ccc(F)cc1)[C@H](C)CN([C@H](C)CO)C2=O`, the cytotoxicity call was “inactive”.

`CCOC(=O)CCCCCC(=O)Nc1ccc2c(c1)C(=O)N([C@H](C)CO)C[C@@H](C)[C@@H](CN(C)S(=O)(=O)c1ccc(Cl)cc1)OCCCC[C@H](C)O2`: the cytotoxicity call is “inactive”.

On to `C[C@@H]1CN([C@@H](C)CO)C(=O)c2cc(NC(=O)Nc3ccc4c(c3)OCO4)ccc2O[C@H]1CN(C)C(=O)Nc1ccc(C(F)(F)F)cc1`, for which the cytotoxicity call is “inactive”.

For the compound `Cc1ccc(S(=O)(=O)N(C)C[C@@H]2Oc3c(NC(=O)C4CC4)cccc3C(=O)N([C@@H](C)CO)C[C@H]2C)cc1`, the cytotoxicity call was “inactive”.

As to `COc1ccc(NC(=O)Nc2ccc3c(c2)C(=O)N([C@@H](C)CO)C[C@@H](C)[C@@H](CN(C)Cc2ccc(Cl)c(Cl)c2)OCCCC[C@H](C)O3)cc1`, the cytotoxicity call was “inactive”.

For the compound `CNCCC=C1c2ccccc2CCc2ccccc21.Cl`, the cytotoxicity call was “active”.

`COc1ccc(S(=O)(=O)N(C)C[C@H]2Oc3c(NS(=O)(=O)c4ccccc4)cccc3C(=O)N([C@@H](C)CO)C[C@H]2C)cc1`: the cytotoxicity call was “inactive”.

In the case of `CN(C)CC(=O)N[C@H]1CC[C@H](CCNS(=O)(=O)c2ccccc2)O[C@H]1CO`, the cytotoxicity call was “inactive”.

Take `C[C@@H]1CN([C@H](C)CO)C(=O)c2cc(NC(=O)Nc3ccccc3)ccc2O[C@H]1CN(C)C(=O)Nc1cccc2ccccc12`: the cytotoxicity call was “inactive”.

As for `COCC(=O)Nc1ccc2c(c1)OC[C@H](C)N(Cc1ccccc1OC)C[C@@H](C)[C@@H](OC)CN(C)C2=O`, the cytotoxicity call was “inactive”.

As for `COCCNC(=O)C[C@H]1CC[C@@H]2[C@H](COc3ccc(NC(=O)Nc4cccc(F)c4)cc3C(=O)N2C)O1`, the cytotoxicity call is “inactive”.

As to `COc1cccc(N2CCN(C3=Nc4c(F)cccc4[C@H](CC(=O)O)N3c3cc(C(F)(F)F)ccc3OC)CC2)c1`, the cytotoxicity call was “inactive”.

In the case of `COc1ccc(-c2cc(=O)c3c(OC)c(OC)c(OC)cc3o2)cc1OC`, the cytotoxicity call was “inactive”.

`C[C@@H]1CN([C@@H](C)CO)S(=O)(=O)c2ccc(C#Cc3ccc(F)cc3)cc2O[C@H]1CN(C)S(=O)(=O)c1ccc(F)cc1`: the cytotoxicity call was “inactive”.

As for `O=C(C[C@H]1CC[C@H]2[C@@H](COC[C@H](O)CN2S(=O)(=O)c2ccccc2)O1)NCc1ccc2c(c1)OCO2`, the cytotoxicity call was “inactive”.

`C[C@@H]1CN([C@@H](C)CO)C(=O)c2cc(NC(=O)Cc3ccccc3)ccc2O[C@@H](C)CCCCO[C@@H]1CN(C)Cc1ccc2c(c1)OCO2`: the cytotoxicity call is “inactive”.
